In PubChem BioAssay AID504332 (National Center for Advancing Translational Sciences (NCATS), 2011):
In all, about 350,000 compounds went through this assay and about 31,000 (8.9%) were called active. Inconclusive means that the source gave no clear call. Such entries were picked first, then a sample of the others. Calls follow the shape of the dose curve; as a rule, active = well fitted inhibition curve with a large enough effect; inconclusive = small, poorly fitted or top-dose-only effect; inactive = no such curve, though single readings can be large or run the other way. Potencies of inconclusive entries are doubtful fits and often do not repeat. Some structures have more than one record in an assay (separate samples or runs), and their calls can disagree.

biological target: Histone-lysine N-methyltransferase EHMT2 (Homo sapiens) (UniProt Q96KQ7); assay: qHTS Assay for Inhibitors of Histone Lysine Methyltransferase G9a; details: G9a H3K9 monomethylation, AlphaScreen, 2 h; activity, negative = inhibition: at 59 µM (top of the series) unless noted; also: nearly all actives have a fitted effect of over 75% in size
How it was run: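 Step 1: enzyme (final 20 nM) with compound, 15 min RT. Step 2: substrate peptide 500 nM and SAM 20 uM, 2 h RT. Step 3: anti-H3K9me1 antibody and AlphaScreen beads, 10 min, then plate read.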
% is scaled to controls: 0 for no effect and ±100 for the full control effect; potency is read from the fitted curve at half-maximal effect; tags tell the direction and shape of the fitted curve.

UniProt Q96KQ7, sequence (Q96KQ7 whole entry, looked up): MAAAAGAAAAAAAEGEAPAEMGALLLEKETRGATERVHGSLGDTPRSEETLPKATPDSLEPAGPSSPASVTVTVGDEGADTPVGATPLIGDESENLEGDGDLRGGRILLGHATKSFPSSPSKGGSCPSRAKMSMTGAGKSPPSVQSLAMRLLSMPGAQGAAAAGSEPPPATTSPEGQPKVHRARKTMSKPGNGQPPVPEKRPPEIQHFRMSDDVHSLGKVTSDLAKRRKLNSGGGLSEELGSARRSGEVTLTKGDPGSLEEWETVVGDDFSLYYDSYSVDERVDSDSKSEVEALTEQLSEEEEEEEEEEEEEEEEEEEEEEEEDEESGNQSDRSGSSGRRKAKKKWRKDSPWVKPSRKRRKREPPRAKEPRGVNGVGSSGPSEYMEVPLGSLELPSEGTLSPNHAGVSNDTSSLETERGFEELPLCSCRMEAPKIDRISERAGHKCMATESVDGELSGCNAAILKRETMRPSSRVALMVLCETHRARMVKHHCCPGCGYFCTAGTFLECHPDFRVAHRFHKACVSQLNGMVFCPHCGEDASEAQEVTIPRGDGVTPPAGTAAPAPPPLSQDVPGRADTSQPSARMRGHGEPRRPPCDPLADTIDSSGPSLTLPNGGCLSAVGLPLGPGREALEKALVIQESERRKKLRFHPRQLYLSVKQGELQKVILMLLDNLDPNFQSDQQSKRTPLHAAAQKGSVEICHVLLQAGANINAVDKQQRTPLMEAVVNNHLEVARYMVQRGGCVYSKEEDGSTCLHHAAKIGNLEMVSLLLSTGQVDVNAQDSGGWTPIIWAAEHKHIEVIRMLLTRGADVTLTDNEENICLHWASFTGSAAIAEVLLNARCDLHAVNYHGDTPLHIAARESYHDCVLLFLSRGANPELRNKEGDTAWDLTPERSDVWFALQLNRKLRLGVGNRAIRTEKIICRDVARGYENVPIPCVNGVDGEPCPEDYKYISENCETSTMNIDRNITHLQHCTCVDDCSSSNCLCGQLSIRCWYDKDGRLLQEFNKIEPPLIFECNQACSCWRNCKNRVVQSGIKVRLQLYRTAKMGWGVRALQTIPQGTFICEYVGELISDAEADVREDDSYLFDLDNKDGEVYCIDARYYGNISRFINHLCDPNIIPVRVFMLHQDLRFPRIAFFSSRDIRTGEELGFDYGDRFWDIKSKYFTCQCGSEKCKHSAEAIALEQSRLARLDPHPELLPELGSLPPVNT

| Compound | Potency | activity, negative = inhibition |
| --- | --- | --- |
| C=CCn1c(C)csc1=Nc1ccc(C(=O)O)cc1 | inconclusive: 39.8 µM [inhibitor, partial curve, poor fit] | – |
| COc1cccc(NC(=O)CN(C)C(=O)c2ccc(COc3ccccc3)cc2)c1 | inconclusive: 56.2 µM [inhibitor, partial curve] | – |
| O=C(NCC1CCCO1)c1ccccc1S(=O)(=O)c1ccc([N+](=O)[O-])cc1 (centres undefined) | inconclusive: 89.1 µM [inhibitor, partial curve, poor fit] | – |
| COc1ccccc1CCNC(=O)c1ccc2nc[nH]c2c1 | inactive | – |
| COc1ccc2[nH]c(C(=O)NCCN3CCCCC3)cc2c1 | active: 56.2 µM | – |
| CCCCSc1nnc(-c2cc3c(C(F)(F)F)nn(C)c3s2)n1C | inconclusive: 79.4 µM [inhibitor, single point] | – |
| COC(=O)CSc1ccccc1C(=O)OC | inconclusive: 1.58 µM [inhibitor, single point] | – |
| Cc1ccc(C)c(N2CCN(CCCNc3ncnc4onc(-c5ccc(Cl)cc5)c34)CC2)c1 | inconclusive: 10 µM [inhibitor, partial curve, poor fit] | – |
| O=[N+]([O-])c1cccc(Nc2c([N+](=O)[O-])ccc3nonc23)c1 | inconclusive: 56.2 µM [inhibitor, partial curve, poor fit] | – |
| CC(C(=O)NCc1ccccc1)N(CCN1CCOCC1)C(=O)c1snc(C(N)=O)c1N (centres undefined) | inconclusive: 0.501 µM [inhibitor, partial curve, poor fit] | – |
| O=C(Cn1nnc(-c2ccccc2)n1)N=Nc1c(O)[nH]c2ccccc12 | inactive | – |
| CCN(C(=O)C(NS(=O)(=O)c1cccc2nsnc12)c1ccccc1)c1ccccc1 (centres undefined) | active: 2.82 µM | – |
| COc1ccc(C(=O)NCCc2cc3ccc(C)c(C)c3[nH]c2=O)cc1OC | inactive | – |
| O=C(CSc1ccsc1[N+](=O)[O-])NCc1ccccc1 | active: 50.1 µM | – |
| COc1ccc(C2=NN(C(=O)CSc3nc(=O)n4ccc(C)cc4n3)C(c3ccc(C)cc3)C2)cc1 (centres undefined) | – | inactive: 4.89% [at 2.33 µM] |
| Cc1cc(C)n2cc(CSc3ccc(Br)cc3)nc2n1 | inactive | – |
| COC/C=C/C1=CC2=CC(=O)C(C)(OC(=O)c3cnc4ccccc4n3)C(=O)C2=CN1Cc1ccccc1 (centres undefined) | – | inactive: -11.4% [at 12.7 µM] |
| Cc1ccccc1S(=O)(=O)/N=C(/Nc1c(C)n(C)n(-c2ccccc2)c1=O)c1ccccc1 | inactive | – |
| Cc1ccc(C(=O)N2c3nc(-c4ccco4)nn3C3(CCCCC3)[C@@H]3CCCC[C@@H]32)cc1 | inconclusive: 25.1 µM [inhibitor, single point] | – |
| COc1ccccc1N1CCN(C(=O)CCNS(=O)(=O)c2ccc3c(c2)CCC(=O)N3)CC1 | inconclusive: 17.8 µM [inhibitor, partial curve] | – |
| C/C(=N\N=C(/N)SC1CC(=O)N(c2ccc(Cl)c(Cl)c2)C1=O)c1cccs1 (centres undefined) | inconclusive: 20 µM [inhibitor, single point] | – |
| COc1ccc(C(=O)c2ccc(OC)c(Br)c2)cc1Br | inconclusive: 35.5 µM [inhibitor, single point] | – |
| NC(=S)NNC(=O)C12CC3CC(CC(C3)C1)C2 | inconclusive: 35.5 µM [inhibitor, single point] | – |

| Compound | Potency | activity, negative = inhibition |
| --- | --- | --- |
| Cc1ccc(NC(=S)/C(=C(\[O-])c2ccc(F)cc2)[n+]2ccccc2)cc1 | active: 12.6 µM | – |
| Cc1cc(/C=N/NC(=O)C(=O)NCc2ccccn2)c(C)n1-c1cccc(Br)c1 | active: 50.1 µM | – |
| Cc1ccc(Cl)c(OC(=O)Cn2cnc3c2c(=O)n(C)c(=O)n3C)c1 | inconclusive: 56.2 µM [inhibitor, partial curve] | – |
| CCn1cc(C(=O)NCCCO)c(=O)c2cc(F)c(N3CCN(C)CC3)cc21 | inconclusive: 50.1 µM [inhibitor, partial curve, poor fit] | – |
| O=C(N/N=C/c1cc(Br)c(O)c(Br)c1)C1CC1 | inactive | – |
| CCCC(=Nc1ccccc1OC)C1=C(O)CC(c2ccccc2)CC1=O (centres undefined) | inconclusive: 79.4 µM [inhibitor, single point] | – |
| O=C(O)CCc1ccc(-c2ccc(F)cc2)n1CC1CCCO1 (centres undefined) | inconclusive: 89.1 µM [inhibitor, single point] | – |
| CCOC(=O)c1ccc(NC(=O)Cn2c(C)nc3c(sc(=S)n3CC)c2=O)cc1 | inconclusive: 31.6 µM [inhibitor, single point] | – |
| Cc1ccc(N(C(=O)C2COc3ccccc3O2)C(C(=O)NC2CCCCC2)c2cn(C)nc2C)cc1 (centres undefined) | inconclusive: 10 µM [inhibitor, partial curve, poor fit] | – |
| COc1ccc([N+](=O)[O-])cc1NCC(=O)Nc1cccc(S(=O)(=O)N2CCCC2)c1 | inconclusive: 50.1 µM [inhibitor, partial curve] | – |
| O=C(CCNS(=O)(=O)c1cccc2nsnc12)Nc1ccc(F)cc1 | inactive | – |
| COc1cc(-c2nc3cnccn3c2Nc2ccccc2)ccc1O | inconclusive: 79.4 µM [inhibitor, single point] | – |
| N#Cc1c(SCC(=O)Nc2nc3ccccc3s2)sc2c(O)cc(=O)[nH]c12 | inconclusive: 5.62 µM [inhibitor, single point] | – |
| O=C(COc1ccccc1Cl)NNC(=O)c1ccc2nc[nH]c2c1 | inactive | – |
| O=C(CN1C(=O)/C(=C/c2ccco2)SC1=S)Nc1ccc(O)c(C(=O)O)c1 | active: 25.1 µM | – |
| COc1ccccc1/C=C(\C#N)c1nc(-c2cc3ccccc3oc2=O)cs1 | inactive | – |
| CC1(C)CC(CC(=O)O)C(=O)O1 (centres undefined) | inconclusive: 89.1 µM [inhibitor, single point] | – |
| CCN(CC)CCNC(=S)Nc1ccc2nc(N3CCN(CC)CC3)cc(C)c2c1 | active: 44.7 µM | – |
| Cc1ccc(S(=O)(=O)N(CC(=O)NCc2ccco2)Cc2ccc(F)cc2)cc1 | inconclusive: 89.1 µM [inhibitor, single point] | – |
| CCCCN1C(=O)CC(Sc2ncccc2C(=O)O)C1=O (centres undefined) | inactive | – |
| COc1cccc(NC(=O)Cn2c(=O)n(Cc3nc(-c4ccccc4)no3)c(=O)c3ccccc32)c1 | inactive | – |
| COc1cccc(NC(=S)Nc2cccc3ccccc23)c1 | inconclusive: 7.08 µM [inhibitor, partial curve, poor fit] | – |
| CCCc1cc(NCCCn2ccnc2)n2nc(C)c(-c3ccccc3)c2n1 | inconclusive: 44.7 µM [inhibitor, partial curve, poor fit] | – |

| Compound | Potency | activity, negative = inhibition |
| --- | --- | --- |
| OCCN1CCN(c2ncnc3nc[nH]c23)CC1 | inactive | – |
| CCc1nnc(NC(=O)CSc2ccc(-c3ccc(-n4cccn4)cc3)nn2)s1 | active: 10 µM | – |
| CC1CCN(c2ccc(/C=N\Nc3nncn3N)cc2[N+](=O)[O-])CC1 | inconclusive: 31.6 µM [inhibitor, single point] | – |
| CNc1ncncc1-c1ccccc1C(F)(F)F | – | inconclusive: -56.2% [inhibitor] [at 0.501 µM] |
| O=C(CCc1c[nH]c2ccccc12)Nc1ncccc1O | inconclusive: 56.2 µM [inhibitor, partial curve, poor fit] | – |
| COCC1CCN(Cc2c(C(=O)N3CCc4ccccc4C3)nc3ccc(Cl)cn23)C1 (centres undefined) | active: 39.8 µM | – |
| COC(=O)C/C=N/N=C1/NC(=O)/C(=C/C(=O)O)S1 | active: 44.7 µM | – |
| O=C(CNS(=O)(=O)c1cccs1)N1CCN(c2cccc(C(F)(F)F)c2)CC1 | inactive | – |
| Cc1ccc2c(c1)sc(C)[n+]2CCCS(=O)(=O)[O-] | inconclusive: 7.08 µM [inhibitor, partial curve] | – |
| CCO[C@H]1OC(C(N)=O)=C[C@@H](c2ccccc2)[C@@H]1CCCO | – | inactive: 32.2% [at 12.7 µM] |
| COC(=O)C1=C(C)N(Cc2ccccc2)C(=NCCc2cccnc2)N[C@H]1c1ccccc1 | active: 31.6 µM | – |
| COc1cccc(NC(=O)CSc2nc(=O)n(CCN(C)C)c3c2CCCC3)c1 | inconclusive: 89.1 µM [inhibitor, partial curve, poor fit] | – |
| CC(O)C(NS(=O)(=O)c1ccc(Cl)cc1)C(=O)OCC(=O)c1c[nH]c2ccccc12 (centres undefined) | inactive | – |
| COc1cc(CN2CCN(S(=O)(=O)c3ccccc3)CC2)cc(OC)c1O | active: 10 µM | – |
| CNc1ccc(Br)cc(C(=O)/C=C/c2ccc(Cl)cc2Cl)c1=O | active: 35.5 µM | – |
| CC[C@]1(O)C[C@H]2CN(CCc3c([nH]c4ccccc34)[C@@](C(=O)OC)(c3cc4c(cc3OC)N(C=O)[C@H]3[C@@](O)(C(=O)OC)[C@H](OC(C)=O)[C@]5(CC)C=CCN6CC[C@]43[C@@H]65)C2)C1 | inconclusive: 17.8 µM [inhibitor, partial curve, poor fit] | – |
| N#Cc1ccccc1OCC(=O)C1CC1 | inactive | – |
| COc1ccc(N2CCN(C(=O)CCSCc3ccccc3F)CC2)cc1 | inconclusive: 28.2 µM [inhibitor, single point] | – |
| O=C(CSCC(=O)N1CCCCC1)Nc1nc(-c2ccc(Cl)s2)cs1 | inconclusive: 89.1 µM [inhibitor, single point] | – |
| CCN(CC)c1nc(N)c2c(N)n(-c3ccccc3C)c(=S)c(C#N)c2c1C#N | – | inactive: -48.5% [at 2.33 µM] |
| CCCc1cc(C(N)=O)c(NC(=O)c2cc(C)on2)s1 | inconclusive: 1.26 µM [inhibitor, single point] | – |
| CCCCn1c(-c2ccc(OC(F)F)cc2)nc2c1c(=O)[nH]c(=O)n2CC(C)C | active: 50.1 µM | – |
| COc1ccc(Br)cc1C(=O)NC(=S)Nc1cc(-c2nc3ccccc3[nH]2)ccc1C | inconclusive: 25.1 µM [inhibitor, single point] | – |
